# Assay results reported in publication PMC4336329 (PLoS ONE, 2015).
# Screen size: about 310,000 compounds; about 14,000 (4.5%) showed an effect of 50% or more. Effects have a minus sign here. The list shows a part of the results.
# Target: human ether-à-go-go-related gene (hERG) potassium channel (human, UniProt Q12809)
# Test: primary screen, population patch clamp on CHO cells stably expressing hERG
# 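Also: peak tail current of the secondary pulse compared with the same well before compound.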
# Chain of human ether-à-go-go-related gene (hERG) potassium channel (Q12809 whole entry, looked up): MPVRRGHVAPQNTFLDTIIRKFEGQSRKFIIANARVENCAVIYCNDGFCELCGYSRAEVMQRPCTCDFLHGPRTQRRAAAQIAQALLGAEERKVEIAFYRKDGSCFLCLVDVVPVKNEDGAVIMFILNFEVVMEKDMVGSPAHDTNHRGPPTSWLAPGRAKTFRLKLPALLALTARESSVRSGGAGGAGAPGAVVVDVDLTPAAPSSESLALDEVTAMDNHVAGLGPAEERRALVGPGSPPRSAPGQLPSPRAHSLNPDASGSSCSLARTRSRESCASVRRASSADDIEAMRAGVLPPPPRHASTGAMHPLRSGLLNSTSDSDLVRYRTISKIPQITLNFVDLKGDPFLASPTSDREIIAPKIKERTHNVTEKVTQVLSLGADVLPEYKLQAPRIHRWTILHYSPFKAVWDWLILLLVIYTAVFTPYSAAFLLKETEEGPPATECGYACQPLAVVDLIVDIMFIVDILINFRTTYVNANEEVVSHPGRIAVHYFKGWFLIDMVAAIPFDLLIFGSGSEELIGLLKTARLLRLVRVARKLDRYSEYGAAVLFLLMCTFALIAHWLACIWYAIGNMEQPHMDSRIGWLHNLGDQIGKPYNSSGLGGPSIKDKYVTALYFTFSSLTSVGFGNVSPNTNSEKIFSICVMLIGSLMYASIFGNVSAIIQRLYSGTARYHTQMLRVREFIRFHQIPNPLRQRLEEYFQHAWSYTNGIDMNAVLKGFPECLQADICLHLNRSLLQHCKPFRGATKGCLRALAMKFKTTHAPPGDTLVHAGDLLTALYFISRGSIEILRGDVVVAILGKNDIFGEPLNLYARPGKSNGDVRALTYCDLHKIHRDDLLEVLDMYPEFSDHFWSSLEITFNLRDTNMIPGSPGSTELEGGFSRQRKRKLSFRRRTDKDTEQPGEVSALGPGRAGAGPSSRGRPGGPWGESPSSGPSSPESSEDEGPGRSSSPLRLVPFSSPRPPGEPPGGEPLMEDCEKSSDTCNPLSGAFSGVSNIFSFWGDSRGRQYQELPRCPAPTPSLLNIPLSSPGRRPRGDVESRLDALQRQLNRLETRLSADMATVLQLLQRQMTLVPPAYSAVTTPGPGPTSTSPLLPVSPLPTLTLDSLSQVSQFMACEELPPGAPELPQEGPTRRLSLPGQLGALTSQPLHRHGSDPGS
row,SMILES,"hERG current change (%, negative = inhibition) at 10uM"
1,Cc1ccccc1-c1nc(CS(=O)(=O)CC(=O)NC2CCCC2)c(C)o1,4.63%
2,CCOc1ccc(-c2[nH]ncc2Oc2ccccc2OC)c(O)c1,10.3%
3,CCN(CCCNC(=O)c1cc2c(-c3cccc(OC)c3)nn(C)c2s1)Cc1ccccc1,-68.1%
4,COc1ccc(OCCNC(=O)c2ccccc2OCC(=O)Nc2ccc(NC(C)=O)cc2)cc1,-11.6%
5,CC(C)Cn1c(SCC(=O)c2c(N)n(C)c(=O)n(C)c2=O)nc2ccccc21,8.79%
6,C#CCOc1nc(Nc2cccc([N+](=O)[O-])c2)nc(OCC#C)n1,-10.1%
7,COc1cccc(CN2CCN(C(=O)c3cccc4ccccc34)CC2)c1OC.O=C(O)C(=O)O,-0.0473%
8,COc1cccc(NC(=O)CSc2nnc(-c3ccoc3C)n2CC2CCCO2)c1 (stereo not shown),-1.09%
9,Cc1ccc(/C=N/NC(=O)c2ccncc2)cc1,1.58%
10,COc1cccc(CNC(=O)c2ccc(C)c(S(=O)(=O)N3CCOCC3)c2)c1,-14.9%
11,COCCCNC(=O)c1cc2c(-c3ccc(Cl)cc3)nn(C)c2s1,-3.72%
12,O=C(CN1C2CCCC1CC(NC(=O)c1ccccc1)C2)Nc1ccccc1C(F)(F)F (stereo not shown),6.14%
13,Cc1ccc(C23CC4CC(CC(NC(=O)NC(C)(C)CO)(C4)C2)C3)cc1,-2.15%
14,Clc1ccccc1-c1nc(-c2ccncc2)no1,-3.96%
15,CC(=O)c1ccc(NC(=O)COc2ccccc2C(=O)Nc2ccccc2)cc1,9.66%
16,O=S(=O)(c1ccc(Cl)cc1)c1cc(O)ccc1O,8.43%
17,Cc1cccc(NC(=O)CN2C(=S)NC(C)(C)CC2C)c1C (stereo not shown),6.98%
18,COc1ccc(CC(=O)NC(C)c2nnc(SCC(=O)Nc3ccccc3F)n2C)cc1 (stereo not shown),9.89%
19,COc1ccc2c(c1)O[C@H](c1ccc3c(c1)OCO3)[C@@H](OC(=O)N[C@H](C)C1CCCCC1)C2=O,-9.35%
20,CCOc1ccc(NC(=O)CC(Cc2cc(C)cc(C)c2)C(=O)O)cc1 (stereo not shown),14.6%
21,O=C(Oc1ccccc1N1C(=O)C2CCCCC2C1=O)c1ccccc1F (stereo not shown),2.26%
22,CCOc1ccc2ccccc2c1C1NC(=O)NC(C)=C1C(=O)OCCOC (stereo not shown),29.7%

row,SMILES,"hERG current change (%, negative = inhibition) at 10uM"
1,CC1=NN(c2ccccc2)C(=O)/C1=C\c1cc(C)n(C)c1C,18.1%
2,COc1ccc(C2CC(=O)c3cnc(NC(=O)c4ccccc4)nc3C2)c(OC)c1 (stereo not shown),-17.7%
3,CCOc1ccccc1NC(=O)N1CCC(n2nnc3cc(C)ccc32)CC1,-53.9%
4,OC(COc1ccc(-c2ccccc2)cc1)CN1CCOCC1 (stereo not shown),-19.7%
5,O=C(COc1ccccc1Cl)Nc1ccccc1C(=O)N1CCOCC1,-3.18%
6,Cc1c(C(N)=O)sc2nc(-c3ccccc3)cn12,1.01%
7,C=CCNC(=O)c1cc2c(=O)n3cccc(C)c3nc2s1,0.811%
8,CC1Oc2ccccc2N(CC(=O)Nc2ccccc2F)C1=O (stereo not shown),21%
9,Cn1c(SCC(=O)NCc2ccccc2)ncc(C(=O)Nc2ccccc2)c1=O,-20%
10,COc1ccc(OC)c(-c2csc(NC(=O)CSc3ccc([N+](=O)[O-])cc3)n2)c1,13.5%
11,CNCC(O)c1ccc(OC(=O)C(C)(C)C)c(OC(=O)C(C)(C)C)c1.Cl (stereo not shown),-2.48%
12,COc1cc(/C=N/NC(=O)Cn2ccc(C(F)(F)F)n2)cc(OC)c1OC,-3.8%
13,Cc1ccc(NC(=O)Nc2ccc(S(N)(=O)=O)cc2)cc1,16.5%
14,CC(C(=O)N1CCOCC1)(c1ccccc1)c1ccccc1,-4.73%
15,CN(C)S(=O)(=O)c1ccc(/C(O)=C2/C(=O)C(=O)N(CCCN3CCOCC3)C2c2ccncc2)cc1 (stereo not shown),18.3%
16,COCCNS(=O)(=O)c1ccc2c(c1)Cc1cc(S(=O)(=O)NCCOC)ccc1-2,-22.1%
17,COc1ccc(NC2CCCCC2NS(=O)(=O)c2ccc(C)cc2)cc1 (stereo not shown),-0.922%
18,CCC(C)[C@H](N)c1nnc(SCc2cccc(F)c2)o1.Cl (stereo partly shown),18.8%
19,O=S(=O)(Nc1ccc(N2CCOCC2)cc1)c1ccccc1,1.24%
20,COc1cc2c3nnc(-c4ccc(F)cc4)c-3cn(Cc3ccc(F)cc3)c2cc1OC,-28.5%
21,Cl.Oc1ccc(-c2csc(Nc3cccc4ccccc34)n2)cc1O,14.4%
22,O=C1NCCCC1C(=O)N1CCN(C(c2ccccc2)c2ccccc2)CC1 (stereo not shown),-2.25%

row,SMILES,"hERG current change (%, negative = inhibition) at 10uM"
1,O=C(N/N=C/c1cccnc1)c1cc(-c2ccccc2)nc2ccccc12,-22.1%
2,COc1ccc(OC)c(NC(=O)COC(=O)/C=C/c2ccccc2Cl)c1,0.775%
3,CC(C)(CN1CCCC1)NS(=O)(=O)c1ccccc1.Cl,24.7%
4,CCN=c1scc(-c2ccccc2)n1/N=C/c1ccccn1,-12.1%
5,CCOc1ccccc1C1C(C(=O)OC)=C(N)OC2=C1C(=O)CCC2 (stereo not shown),-4.55%
6,CCN(CC)Cc1c(C(=O)N/N=C(\C)c2ccncc2)nnn1-c1nonc1N,-80.3%
7,CCc1nc(Nc2ccccc2O)c2oc3ccccc3c2n1.Cl,-25.6%
8,CCOc1cc(/C=N/n2c(C)nnc2C)ccc1O,7.63%
9,O=C(COC(=O)c1cc(S(=O)(=O)N2CCOCC2)c(Cl)cc1Cl)Nc1ncc(C(F)(F)F)cc1Cl,-0.837%
10,CC1CCN(S(=O)(=O)c2ccc(Cl)cc2Br)CC1,-5.46%
11,Cc1cc(OCC(=O)N[C@@H](Cc2ccccc2)c2nc3ccccc3[nH]2)ccc1Cl,-1.88%
12,CC1CC(C)(C)NC(=S)N1CC(=O)NCc1ccc(F)cc1 (stereo not shown),0.792%
13,CCC1CCCCN1S(=O)(=O)c1ccc(NC(=O)c2cccs2)cc1 (stereo not shown),-1.94%
14,Cc1cccc(NC(=O)CN2C(=O)S/C(=C\c3cc(C)n(C)c3C)C2=O)c1,-10.7%
15,COc1ccccc1N1CCN(CC(=O)Nc2ccc(C)c(F)c2)CC1,-23.1%
16,CC(C)CNC(=O)C1CCN(c2ccc(S(=O)(=O)N3CCOCC3)cc2[N+](=O)[O-])CC1,-38.8%
17,CC1(C)Cc2ccccc2C2=C(C(=O)N3CCCCCC3)C(=O)C(=O)N21,23.2%
18,CCOc1cc(C(=O)CCC(=O)OCC(=O)N2c3ccccc3NC(=O)C2(C)C)ccc1O,-15.5%
19,COc1cc(NC(=O)CN2C(=O)C(c3ccccc3)=NC23CCCCCC3)cc(OC)c1,26.3%
20,Cc1ccc(C(=O)NCC(=O)N2CCN(S(=O)(=O)c3cccs3)CC2)s1,-0.929%
21,O=C(Nc1ccccc1)c1ccc(C(=O)Nc2ccccc2)nc1,26.2%
22,O=C(N/N=C/c1cc2c(cc1Br)OCO2)c1cccnc1,20.9%

row,SMILES,"hERG current change (%, negative = inhibition) at 10uM"
1,COc1ccc(NC(=O)CN(C)CC(=O)NC(=O)NC2CCCCC2)cc1,-9.26%
2,Cc1ccccc1N(CC(=O)NCCc1ccccc1)C(=O)c1ccc(N2CCCC2)nc1,-10.5%
3,CC(Sc1nnc(Nc2ccccc2)s1)C(=O)Nc1nc(-c2ccccc2)cs1 (stereo not shown),7.84%
4,COc1ccc(C(=O)C2CCN(CC(=O)Nc3ccc(OC)cc3OC)CC2)cc1,-18.1%
5,S=C(NCCc1ccccc1)N1CCn2cccc2C1c1ccncc1 (stereo not shown),-36.3%
6,Cc1ccc(C)c(OCC(=O)NNC(=O)c2ccc(=O)[nH]c2)c1,9.29%
7,Cc1[nH]c2ccc(F)cc2c1CCN(Cc1ccco1)C(=S)NC(C)(C)C,11.6%
8,O=C(Cc1cc(=O)oc2cc(O)ccc12)NC(Cc1ccc(Cl)cc1)C(=O)O (stereo not shown),23.5%
9,COC(=O)c1nnn(CC(=O)NC(=O)Nc2cccc(Cl)c2C)c1C(=O)OC,-0.536%
10,CN(C)CCn1c2c(c(SCC(=O)Nc3cccc(C(F)(F)F)c3)nc1=O)CCCC2,-68.8%
11,COc1cccc(OCc2nn[nH]n2)c1,21.2%
12,CCc1nnc(NS(=O)(=O)c2ccc(N/C=C(\C=O)c3nc4cc(Cl)ccc4o3)cc2)s1,-15.8%
13,Cc1nn(Cc2nc(-c3cccs3)no2)c(C)c1Br,-0.547%
14,COc1cc(OC)cc(C(=O)N2CCN(C(=O)COc3ccc4ccccc4c3)CC2)c1,-64.8%
15,CCCC(=O)N/N=C1\CS(=O)(=O)N(C)c2ccsc21,18.4%
16,CCOC(=O)c1oc2ccc(S(=O)(=O)N3CCC(C)CC3)cc2c1C,-6%
17,Fc1ccc(CSc2nnc(-c3cccs3)o2)cc1,-14.4%
18,CCOc1cc(/C=C2/SC(=S)NC2=O)ccc1OC(=O)c1ccco1,20.6%
19,CC(=O)c1c(N2CCN(CCO)CC2)nc(=S)n(-c2ccccc2)c1C,5.13%
